Measurements reported in the supplement of paper PMC12217912.
Some of the results follow. The full chains were built here from the parent and the listed change. Inactive controls read about 0.05.

B1: TEV protease; numbered along this chain (parent)
chain: MGESLFKGPRDYNPISSSICHLTNESDGHTTSLYGIGFGPFIITNKHLFRRNNGTLVVQSLHGVFKVKDTTTLQQHLVDGRDMIIIRMPKDFPPFPQKLKFREPQREERICLVTTNFQTKSMSSMVSDTSCTFPSGDGIFWKHWIQTKDGQCGSPLVSTRDGFIVGIHSASNFTNTNNYFTSVPKNFMELLTNQEAQQWVSGWRLNADSVLWGGHKVFMVKPEEPFQPVKEATQL

Variants of: B1
Test: raw area under fraction-flipped curve 0-4 h after induction (AUC4h, not background-subtracted), DNA-recorder readout of cleavage of the substrate (dimensionless); higher = more cleavage of the substrate by the protease variant
Conditions: temperature: 34 °C; time window: 0-4 h after rhamnose induction
Procedure: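 In vivo DNA recorder in E. coli TOP10(DE3) ΔrhaA at 34 °C. Each TEVp single-site mutant (parent TEVp 0) is paired with a single-site variant of the 7-mer TEVs (canonical ENLYFQ|S). The substrate sits between flexible linkers in a Bxb1-sfGFP-TEVs-SsrA fusion, so cleavage stabilises Bxb1 and speeds flipping of a recombination array, read by NGS. The value is the raw area under the fraction-flipped curve over 0-4 h after rhamnose induction (AUC4h), with ≥20 reads per time point. It is not background-subtracted; inactive controls average about 0.047.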
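Note: Bxb1 expression induced with 0.2% (w/v) L-rhamnose at OD600 near 0.5, cultures sampled hourly, flipped fraction per protease–substrate barcode pair counted by paired-end Illumina sequencing.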

Variant	area with substrate ENLYCQS	area with substrate ENLYDQS	area with substrate ENLYEQS	area with substrate ENLYGQS	area with substrate ENLYPQS	area with substrate ENLYQQS	area with substrate ENLYSQS	area with substrate ENLYVQS	area with substrate ENLYWQS	area with substrate ENLYKQS	area with substrate ENLYNQS	area with substrate ENLYRQS	area with substrate ENLYYQS	area with substrate ENLYHQS	area with substrate ENLYLQS	area with substrate ENLYMQS	area with substrate ENLYIQS	area with substrate ENLYTQS
R87V	0.0872	0.0837	0.0641	0.0608	0.0677	0.0625	0.0614	0.0751	0.0748									
D79E	0.0742		0.0503	0.0663	0.0547		0.0685	0.107		0.0657								
N172P	0.0719		0.0643				0.0649		0.054		0.0577	0.0537	0.0922					
V78N	0.0425		0.0597					0.0462	0.0638	0.0773	0.0593	0.0462	0.0589	0.0525	0.0577	0.0724		
P134R	0.0825	0.0643	0.0517	0.0644	0.0727			0.111		0.0657		0.0604		0.0615		0.0742	0.0687	
N178S	0.0612	0.0582		0.0851		0.059		0.099		0.0619	0.0564			0.0565		0.0783	0.126	
R109K	0.0762	0.0602		0.0699		0.0867	0.0826	0.153		0.0809	0.0032			0.0456			0.101	
T129D	0.0772		0.0473			0.0601					0.0617					0.0792	0.131	
A170S	0.0811	0.0436	0.0494		0.0419		0.0647	0.0912	0.0471		0.0501	0.0606		0.044		0.0527		
D82M	0.0389	0.0476	0.0579		0.0617	0.0528		0.0413	0.0505		0.0557			0.0723	0.0509	0.0501		
L190T	0.0926			0.077	0.0607			0.105			0.0848	0.0576	0.0445					
L190D	0.0828	0.0558	0.0839	0.0616	0.0704		0.0833	0.0701		0.0335	0.0918		0.0429	0.0689	0.0641	0.0903		0.0418
F163D	0.072		0.0663	0.0563	0.0742													
F163Y	0.0592	0.0515		0.0656	0.0907	0.0648	0.0589	0.127				0.0706	0.0804	0.0699		0.0746	0.135	
T132N	0.0673	0.0596	0.0646		0.071				0.0888	0.0605		0.0538		0.0541		0.0591	0.101	0.0582
T132K	0.0563		0.0528			0.0488				0.0584				0.0579				
L156Y	0.0522	0.0698	0.0456	0.0497		0.0535		0.0665		0.0688	0.0511	0.0663		0.0536	0.0472			0.0584
G150A	0.0572		0.0678											0.0548			0.087	

Variant	area with substrate ENLYCQS	area with substrate ENLYDQS	area with substrate ENLYEQS	area with substrate ENLYGQS	area with substrate ENLYPQS	area with substrate ENLYQQS	area with substrate ENLYSQS	area with substrate ENLYVQS	area with substrate ENLYWQS	area with substrate ENLYKQS	area with substrate ENLYNQS	area with substrate ENLYRQS	area with substrate ENLYYQS	area with substrate ENLYHQS	area with substrate ENLYLQS	area with substrate ENLYMQS	area with substrate ENLYIQS	area with substrate ENLYTQS
G150Y	0.0555		0.0621		0.0608		0.0541	0.0593		0.0237	0.0544	0.0553		0.0491	0.0697	0.0447	0.0547	
P93K	0.0666				0.0527		0.0907	0.0676						0.054				0.0583
P93D	0.103		0.0662	0.0466	0.0622					0.0581	0.0713	0.0629	0.0566	0.0654		0.0698	0.109	
G138W	0.0995	0.0515		0.0294	0.0599			0.106		0.0677		0.0684		0.0725				
K185L	0.0901	0.0539	0.0608	0.0662		0.056	0.0851				0.0945		0.0689					
T159V	0.103	0.0513		0.0565		0.0536	0.0982				0.0602			0.0573				0.0616
G153T	0.03			0.0412		0.0473	0.0536			0.0353	0.0513			0.0621	0.0458	0.056		0.0511
D69F	0.0717	0.0655			0.0635	0.0465					0.0565		0.0753			0.0616		
I110F	0.0587	0.0508	0.0439	0.0425	0.052	0.054	0.0578	0.054	0.0521	0.0267	0.0641	0.0475	0.0411	0.0516		0.0588		
I139T	0.0924	0.0223		0.0411								0.0738						0.106
D149P	0.0828	0.0495	0.0557	0.081	0.0702	0.0623	0.0594	0.0895		0.0659			0.0291					
M125Y	0.0524	0.0517	0.0643	0.0677		0.0349	0.0619	0.106			0.0578			0.042		0.0789		
S124G	0.0874	0.0555	0.057	0.0922	0.0395		0.0762				0.0607	0.0642		0.0748		0.0819		0.0807
V67G	0.102	0.0451	0.0577		0.056		0.0692	0.0706	0.0758	0.0552	0.0485	0.046		0.0498		0.0575	0.0479	
V113W	0.0934	0.0626			0.0737	0.0598			0.0798	0.0661	0.075		0.0518	0.0678			0.124	
F101I	0.0655	0.0899			0.0592		0.0497		0.0499		0.0726		0.0602				0.0847	
R106N	0.0928	0.0991	0.064	0.0624				0.111		0.0525	0.0554	0.067		0.0661			0.0943	0.072
D91S	0.0758				0.0679	0.0304	0.0769		0.0608	0.076	0.0611	0.0629	0.0896			0.0719	0.179	
